Experimental data as given in patent US9579380B2, “Microporation of tissue for delivery of bioactive agents” (priority 1996, dated 2017).

Tested on: skin on the volar forearm of a human subject
Assay: Fluorescent dextran penetration into microporated skin, fluorescent video microscope
Settings: 36 micropores, approximately 80 μm deep

dextran
distance of permeation from the nearest micropore (in one square cm, within 5 minutes): more than 2 mm | extent of fluorescent flush from the pores (10 minutes later): 10 mm
